# The supplement of paper PMC8728848
# This is one part of the list.
# What was measured:
# Test in all cases: glycan array binding signal (z-score within array); higher = stronger binding
# Conditions in all cases: glycan notation: IUPAC condensed, linker removed
# [1] = molecular target: Neu5Ac(a2-6)GlcNAc(b1-4)GlcNAc(b1-4)GlcNAc
# Summary of the method: (§1)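 From the Consortium for Functional Glycomics database, 3228 arrays were curated, keeping only those whose protein sequence was available. Binding is given as a within-array Z-score averaged across arrays sharing a protein sequence and across linkers. Negative Z-scores can be read as non-binding.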
# Neu5Ac(a2-8)Neu5Ac = molecular target: Neu5Ac(a2-8)Neu5Ac
# Summary of the method: as §1
# [2] = molecular target: Neu5Ac(a2-8)Neu5Ac(a2-3)Gal(b1-3)GalNAc(b1-4)[Neu5Ac(a2-3)]Gal(b1-4)Glc
# Summary of the method: as §1
# [3] = molecular target: Neu5Ac(a2-8)Neu5Ac(a2-3)Gal(b1-3)GalNAc(b1-4)[Neu5Ac(a2-8)Neu5Ac(a2-3)]Gal(b1-4)Glc
# Summary of the method: as §1
# [4] = molecular target: Neu5Ac(a2-8)Neu5Ac(a2-3)Gal(b1-4)Glc
# Summary of the method: as §1
# [5] = molecular target: Neu5Ac(a2-8)Neu5Ac(a2-3)Gal(b1-4)GlcNAc
# Summary of the method: as §1
# [6] = molecular target: Neu5Ac(a2-8)Neu5Ac(a2-3)[Gal(b1-3)GalNAc(b1-4)]Gal(b1-4)Glc
# Summary of the method: as §1
# [7] = molecular target: Neu5Ac(a2-8)Neu5Ac(a2-3)[GalNAc(b1-4)]Gal(b1-4)Glc
# Summary of the method: as §1
# [8] = molecular target: Neu5Ac(a2-8)Neu5Ac(a2-8)Neu5Ac
# Summary of the method: as §1
# [9] = molecular target: Neu5Ac(a2-8)Neu5Ac(a2-8)Neu5Ac(a2-3)Gal(b1-4)Glc
# Summary of the method: as §1
# [10] = molecular target: Neu5Ac(a2-8)Neu5Ac(a2-8)Neu5Ac(a2-3)[Gal(b1-3)GalNAc(b1-4)]Gal(b1-4)Glc
# Summary of the method: as §1
# [11] = molecular target: Neu5Ac(a2-8)Neu5Ac(a2-8)Neu5Ac(a2-3)[GalNAc(b1-4)]Gal(b1-4)Glc
# Summary of the method: as §1
# [12] = molecular target: Neu5Ac(a2-8)Neu5Ac(a2-8)Neu5Ac(a2-8)Neu5Ac(a2-3)[GalNAc(b1-4)]Gal(b1-4)Glc
# Summary of the method: as §1
# [13] = molecular target: Neu5Ac(a2-8)Neu5Gc(a2-3)Gal(b1-4)GlcNAc
# Summary of the method: as §1
# [14] = molecular target: Neu5Ac(b2-6)Gal(b1-4)GlcNAc
# Summary of the method: as §1
# Neu5Ac(b2-6)GalNAc = molecular target: Neu5Ac(b2-6)GalNAc
# Summary of the method: as §1
# [15] = molecular target: Neu5Ac9Ac(a2-3)Gal(b1-3)GlcNAc
# Summary of the method: as §1
# [16] = molecular target: Neu5Ac9Ac(a2-3)Gal(b1-4)GlcNAc
# Summary of the method: as §1
# [17] = molecular target: Neu5Ac9Ac(a2-6)Gal(b1-4)GlcNAc
# Summary of the method: as §1
# [18] = molecular target: Neu5Gc(a2-3)Gal(b1-3)GlcNAc
# Summary of the method: as §1
# [19] = molecular target: Neu5Gc(a2-3)Gal(b1-3)[Fuc(a1-4)]GlcNAc
# Summary of the method: as §1
# Neu5Gc(a2-3)Gal(b1-4)Glc = molecular target: Neu5Gc(a2-3)Gal(b1-4)Glc
# Summary of the method: as §1
# [20] = molecular target: Neu5Gc(a2-3)Gal(b1-4)GlcNAc
# Summary of the method: as §1
# [21] = molecular target: Neu5Gc(a2-3)Gal(b1-4)GlcNAc(b1-3)Gal(b1-4)GlcNAc(b1-2)Man(a1-3)[Neu5Gc(a2-3)Gal(b1-4)GlcNAc(b1-3)Gal(b1-4)GlcNAc(b1-2)Man(a1-6)]Man(b1-4)GlcNAc(b1-4)GlcNAc
# Summary of the method: as §1
# [22] = molecular target: Neu5Gc(a2-3)Gal(b1-4)[Fuc(a1-3)]GlcNAc
# Summary of the method: as §1
# [23] = molecular target: Neu5Gc(a2-6)Gal(b1-4)GlcNAc
# Summary of the method: as §1
# Neu5Gc(a2-6)GalNAc = molecular target: Neu5Gc(a2-6)GalNAc
# Summary of the method: as §1
# [24] = molecular target: Neu5Gc(a2-8)Neu5Ac(a2-3)Gal(b1-4)GlcNAc
# Summary of the method: as §1
# [25] = molecular target: Neu5Gc(a2-8)Neu5Gc(a2-3)Gal(b1-4)GlcNAc
# Summary of the method: as §1
# [26] = molecular target: Neu5Gc(a2-8)Neu5Gc(a2-3)Gal(b1-4)GlcNAc(b1-3)Gal(b1-4)GlcNAc
# Summary of the method: as §1
# [27] = molecular target: Neu5Gc(a2-8)Neu5Gc(a2-6)Gal(b1-4)GlcNAc
# Summary of the method: as §1
# [28] = molecular target: Neu5Gc(b2-6)Gal(b1-4)GlcNAc
# Summary of the method: as §1
binder,measurement,setting,value
Mg3lysM (Mycosphaerella graminicola) (protein) APQNPPTSCSAAPQPTGTGSPGTVCGSTTFTNYTVKAGDTLGAIAKQYNSGVCDIAKVNGIDNPDYIKPDQVLSIPANCVTPDNTSCVKPVPVITNTCVLGVGSTYTVKSGDSFSAIATSFNITLASLEARNPQIPNYDLIFPGQVINTPLCPNSVCDSIGTYVIESGDIFYNLAQSNNVTVGQLESLNVNVNVTDIHPGDIIILPHNCHNITASA,glycan array binding signal (z-score),[1],0.02
same,glycan array binding signal (z-score),Neu5Ac(a2-8)Neu5Ac,-0.023
same,glycan array binding signal (z-score),[2],0.117
same,glycan array binding signal (z-score),[3],-0.035
same,glycan array binding signal (z-score),[4],-0.08
same,glycan array binding signal (z-score),[5],-0.194
same,glycan array binding signal (z-score),[6],-0.119
same,glycan array binding signal (z-score),[7],-0.083
same,glycan array binding signal (z-score),[8],-0.038
same,glycan array binding signal (z-score),[9],-0.024
same,glycan array binding signal (z-score),[10],0.074
same,glycan array binding signal (z-score),[11],-0.012
same,glycan array binding signal (z-score),[12],-0.189
same,glycan array binding signal (z-score),[13],0.137
same,glycan array binding signal (z-score),[14],-0.255
same,glycan array binding signal (z-score),Neu5Ac(b2-6)GalNAc,-0.136
same,glycan array binding signal (z-score),[15],-0.117
same,glycan array binding signal (z-score),[16],-0.011
same,glycan array binding signal (z-score),[17],-0.085
same,glycan array binding signal (z-score),[18],-0.088
same,glycan array binding signal (z-score),[19],-0.09
same,glycan array binding signal (z-score),Neu5Gc(a2-3)Gal(b1-4)Glc,-0.078
same,glycan array binding signal (z-score),[20],-0.074
same,glycan array binding signal (z-score),[21],-0.076
same,glycan array binding signal (z-score),[22],-0.088
same,glycan array binding signal (z-score),[23],-0.051
same,glycan array binding signal (z-score),Neu5Gc(a2-6)GalNAc,-0.101
same,glycan array binding signal (z-score),[24],0.002
same,glycan array binding signal (z-score),[25],-0.115
same,glycan array binding signal (z-score),[26],0.054
same,glycan array binding signal (z-score),[27],-0.105
same,glycan array binding signal (z-score),[28],-0.006
